# According to article PMC12136788:
# The other results are listed elsewhere or left out.
# B1: ENSG00000175216:stop:overlap|stop_codon|ENSG00000175216|stop_codon|NA|stop_codon (ssRNA)
# RNA: GGGAGUUCUACAGUCCGACGAUCGAUGUGGUCUGGACAACACAAAGGUACUGCUCCUUUUCUUCUGUGCAGUUCAGGGAGGGUAGUCACAAGCAGGUCCGAGGCAGGCUGGCCCACAGAGAAGUGGCUUAGUCUUGCUGUAGUCAACAGAGGAUUGAGCAUCA
# B2: chr1:17283265:17283432:+|3pUTR|ENSG00000142619|msi1|total|mutant (ssRNA)
# RNA: GGGAGUUCUACAGUCCGACGAUCCAUGUGGUUCUCAGACUUGAAUCUUCUCGGCCCCCCAAAAAGAAGGACCUCAUUUCUUACCGCCUCUCCUGUGAUUCAACACAACCCAUGGAGAUGUCCCCUUCUCACUCUGAAAUCAUCCAACAGAGGAUUGAGCAUCA
# B3: chr22:45843749:45843850:+|3pUTR|ENSG00000130638|msi1|total|mutant (ssRNA)
# RNA: GGGAGUUCUACAGUCCGACGAUCAAAUUGCAAGUGUUUGAAGAUUUAUAAGUACAAAUUUGGGAACAUACAAAUCUUUCCGGCCGCCGAGUUUAACGUGUAUAAGCUAAAAGUGAAAGUAACUGAGUGUUCUCUUGUUUCUUUCAACAGAGGAUUGAGCAUCA
# B4: chr1:160214333:160214525:+|3pUTR|ENSG00000162734|msi1|total|mutant (ssRNA)
# RNA: GGGAGUUCUACAGUCCGACGAUCCUACAGUGUUUUCCUUUGCACCGAUCCCCACCCCAAUUCAAUCCCGGAAGGGACUUACUCCGGAAACCCUUCUUUACCCGAUAUCCUGGCCCCCUGGGCUUGUGAACACCUCCCCGCCACCAACAGAGGAUUGAGCAUCA
# B5: chr2:212999690:213008084:-|three_prime_utr|ENSG00000030419|control|control|control (ssRNA)
# RNA: GGGAGUUCUACAGUCCGACGAUCACAAUCGCUGAAGUGGCCCCAGUUAUAAGCUCAGCUUAUUCUCAGGUCUAUCAUCCAAAUAGGAUAGAAAGACCCAUUAGCAGGGAAACUGCUGAUAGUCAUGAAAACAACAUGGAUGGCCAACAGAGGAUUGAGCAUCA
# B6: chr7:7234405:7234460:+|CDS|ENSG00000106392|msi1_unk|FALSE|overlapping (ssRNA)
# RNA: GGGAGUUCUACAGUCCGACGAUCAAUUUUUUAACCUUCCUCUGUGGAUCAGCAAUAGGAUUUCUUUUAUGUUCUCAGCUAUUUAGUAUUUUGUUGGGAGAAAAGGUUGACACCCAGCCUAAUGUUCUUCAUAAUGAUCCUCAUCAACAGAGGAUUGAGCAUCA
# B7: chr8:17644361:17644462:-|3pUTR|ENSG00000129422|msi1|FALSE|bound_elsewhere (ssRNA)
# RNA: GGGAGUUCUACAGUCCGACGAUCCAACAUUGUGAUGUCAGUAUUUACUAAUCUACAUUCAGUGGCUGUACAAAUAACAGCUGUAGUAAGAAGAGAUUCAGGAUGCUAGAGGUGAAUAUUUGGGUCAUUUACAUGUACACUACACAACAGAGGAUUGAGCAUCA
# B8: chr18:2547350:2547451:-|CDS|ENSG00000101574|unk|FALSE|unique (ssRNA)
# RNA: GGGAGUUCUACAGUCCGACGAUCUAGACAGAAGCACCUACGUUUUAUAAAGGAAGAACUUUAUCCCUCUUGGUCUGUGGAGGUAGUUGCUGAGUGGCACUGGGUAAAAGUAAGUUCAGAAGUUAGCUUAUUUGUUAAUACAGCCAACAGAGGAUUGAGCAUCA
# B9: chr15:67202635:67202736:-|3pUTR|ENSG00000103591|msi1|FALSE|unique (ssRNA)
# RNA: GGGAGUUCUACAGUCCGACGAUCUGCCAAAAUUGCCCUUAUCAUGUUGGCUGCCUGACUUGUUUAUAGGGUCCCCUUAAUUUUAGUUUUUAGUAGGAGGUUAAGGAGAAAUCUUUUUUUUCCUCAGUAUAUUGUAAGAGAGUGCAACAGAGGAUUGAGCAUCA
# B10: chr20:18487131:18487232:-|3pUTR|ENSG00000089050|msi1|total|mutant (ssRNA)
# RNA: GGGAGUUCUACAGUCCGACGAUCAAAUACCGUAACCAGUAACCACAGCCCGCUGUAAAAUUGAAAAUUCAGUUCAGUCAAACCCGCCAUAUUUCAAGUGCUCAACAGCCACUGGUGGCUAUUGGUUACCUUACUGACCAGCCACAACAGAGGAUUGAGCAUCA
# B11: chr15:52582156:52582307:-|CDS|ENSG00000047346|control|control|control (ssRNA)
# RNA: GGGAGUUCUACAGUCCGACGAUCAAGAUCUACCUCCAUAGAGACGUACGGCUCCUGUUCUCUAGAAAGUCAAUGGAGGUUGAUAGCGGUGCUGCAUAUGAACUCAAAUCUUACACUGAAUCACCAACAAACCCUCAGUUUUCACAACAGAGGAUUGAGCAUCA
# B12: chr1:54216159:54216271:+|CDS|ENSG00000116221|unk|total|mutant (ssRNA)
# RNA: GGGAGUUCUACAGUCCGACGAUCCUUGGAGCAGCCCGUGGUGGUGCAGAGCGUGGGCACGGAUGGACGUGUCUUCCAUUUCCCCGUGUUUCAACUGAAUACCACAGACCUGGACUGUAACGAGGGUGUCAAGAAUUUGGCCUGCAACAGAGGAUUGAGCAUCA
# B13: chr2:216674221:216674322:-|3pUTR|ENSG00000115461|msi1|total|mutant (ssRNA)
# RNA: GGGAGUUCUACAGUCCGACGAUCGCAUGCCCCAUCUCUCUGCACAGCUGUCCCCUAAACCCAACUCACGUUUCUGUAUGUCUCCGGCCAGUAUCCCAAACCUCUUCCACGUCACUGUUCUUUCCACCCAUUCUCCCUUUGCAUCAACAGAGGAUUGAGCAUCA
# B14: chr6:36925443:36925544:+|3pUTR|ENSG00000198663|msi1|total|mutant (ssRNA)
# RNA: GGGAGUUCUACAGUCCGACGAUCGAGGCAUCCCGUGGGAAAGUCCCCUAAGUCCCAUUUUGUACUUCAACAAAAAAUGACUGCCGCAGAAGAUAAGUGGAGACUUUUAUGGAUAUACUACUCAUUUUACUUAAAAUCUACCCACAACAGAGGAUUGAGCAUCA
# B15: chr1:201892154:201892255:+|3pUTR|ENSG00000198892|msi1|total|mutant (ssRNA)
# RNA: GGGAGUUCUACAGUCCGACGAUCUGUUUGUCCCCUCUGGGCUGGGGUGGGGGGAGGGAGGAGGUUCCGUCAGCAGCUGGCAGCCGCCCUCCUCUCUGGCUGCCCCACUGGCCACAUCUCUGGCCUGCCCGAUUAAAGCUGUAACAACAGAGGAUUGAGCAUCA
# B16: chr12:27081967:27082483:-|CDS|ENSG00000214700|control|control|control (ssRNA)
# RNA: GGGAGUUCUACAGUCCGACGAUCGAGAACAAAACUGUCUGUUGGCAAACUGAAUAAUCUUGUGCAAGAGUUUCAGAUAUUUCUAGAAAAUCUGAAAGAUGAUGACGCUGUAUUUCCUGAAACUGCUCAGCAAGAUUUCCAGCUCAACAGAGGAUUGAGCAUCA
# B17: chr6:105096826:105097152:-|3pUTR|ENSG00000112276|msi1|FALSE|unique (ssRNA)
# RNA: GGGAGUUCUACAGUCCGACGAUCACUUGCAACCUAGUUUUAAAAUACAUGAGGAUUUUAUGAAAGCUUUAUACAGACAUUUAUAGGAAACUCAUUCUUUGAUUUUAGGUGCCAUUUAAAUUGAUAACACUUACUUUAUAAAAACAACAGAGGAUUGAGCAUCA
# B18: chr15:32738025:32738127:+|3pUTR|ENSG00000166923|unk|total|mutant (ssRNA)
# RNA: GGGAGUUCUACAGUCCGACGAUCGGAUAUCUGCUGUCACUAUUUUUAUUCAAUAUUAUACUGGAGGUUCUACCCCGGGUAAUCCGGCAAAAAAAAAAAAAAAAAAAAAAAAAAAAAAAAAAAAAAAAAAAAAAAAAAGAAAAGCAACAGAGGAUUGAGCAUCA
# B19: chr16:23064695:23064796:-|3pUTR|ENSG00000103404|msi1|FALSE|unique (ssRNA)
# RNA: GGGAGUUCUACAGUCCGACGAUCGUUUAUGGAGGGCCUUCUUUGAGCACAGAGGCAAAACUGAAAGCUUCAGGGAUUUGCUGUAGCUGAGGAGCCCUGGGAGCACAGCCCAUCAAGCAAGGGAUGUGAUGGUGUCCUAAAUGGCAACAGAGGAUUGAGCAUCA
# B20: chr14:88572724:88572825:+|CDS|ENSG00000100722|unk|total|mutant (ssRNA)
# RNA: GGGAGUUCUACAGUCCGACGAUCGUGACACUUACAUAUGGUUCUUCUCGCCCUUCUAUUGAAAUUUAUCGACCACCUGCAAGCCGAAAUGCAGACCGUGGUGUUCAUUUAAACAGGUUGCAAUUUCAACAGCAGCAGAACCGUCAACAGAGGAUUGAGCAUCA
# B21: chr19:49662424:49662617:-|CDS|ENSG00000126456|control|control|control (ssRNA)
# RNA: GGGAGUUCUACAGUCCGACGAUCGUUACUGGGUAACAUGGUGUUGGCCCCACUCCCAGAUCCGGGACCCCCAAGCCUGGCUGUAGCCCCUGAGCCCUGCCCUCAGCCCCUGCGGAGCCCCAGCUUGGACAAUCCCACUCCCUUCAACAGAGGAUUGAGCAUCA
# B22: chr1:45741042:45741143:-|CDS|ENSG00000197429|msi1|FALSE|unique (ssRNA)
# RNA: GGGAGUUCUACAGUCCGACGAUCUGCCAUGAUCUCUUGGAAUUCUCAGAAAACUACAUUCAUGUCCAUUUCUUGGAGGUUCAUAGUGGAGAAGAGUUCCUGGCACUUACGAAAGAUCAGCUGAUCAAAAUUUUGCGAAGUGAACAACAGAGGAUUGAGCAUCA
# Target: MSI1 full-length (mouse, UniProt Q61474 1-362)
# Chain of UniProt Q61474 (Q61474 whole entry): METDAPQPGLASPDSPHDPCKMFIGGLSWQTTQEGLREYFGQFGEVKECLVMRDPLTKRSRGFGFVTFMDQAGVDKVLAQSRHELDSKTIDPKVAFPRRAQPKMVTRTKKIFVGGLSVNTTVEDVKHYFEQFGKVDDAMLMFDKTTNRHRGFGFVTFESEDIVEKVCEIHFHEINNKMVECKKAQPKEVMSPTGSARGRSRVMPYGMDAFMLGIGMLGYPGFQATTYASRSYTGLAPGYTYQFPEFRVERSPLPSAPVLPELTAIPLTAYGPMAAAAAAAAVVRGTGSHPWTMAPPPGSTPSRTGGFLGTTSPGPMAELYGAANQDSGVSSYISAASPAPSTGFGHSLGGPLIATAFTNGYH
# Test: nsRBNS (natural sequence RNA bind-n-seq); RBNS binding buffer (assumed for nsRBNS): 25 mM Tris pH 7.5, 150 mM KCl, 3 mM MgCl2, 0.01% Triton X-100, 500 ug/ml BSA, 20 U/ml SUPERase-In, 4 C; UNK is unkempt and MSI1 is Musashi-1; names of the RNAs are library labels; protein concentration not given here; high values mean tight binding
row,Binder,binding signal [enrichment R]
1,B1,0.292
2,B2,0.387
3,B3,0.458
4,B4,0.883
5,B5,0.33
6,B6,2.66
7,B7,0.442
8,B8,1.58
9,B9,32.9
10,B10,0.516
11,B11,0.525
12,B12,0.417
13,B13,0.921
14,B14,0.467
15,B15,0.451
16,B16,0.236
17,B17,1.13
18,B18,0.986
19,B19,0.522
20,B20,0.415
21,B21,0.637
22,B22,0.171
